Results on 88 molecules are retold here after ChEMBL document CHEMBL4888484, “Replenishing the malaria drug discovery pipeline: Screening and hit evaluation of the MMV Hit Generation Library 1 (HGL1) against asexual blood stage Plasmodium falciparum ,using a nano luciferase reporter read-out” (2022).

Out of some 150,000 compounds screened, about 540 (0.36%) showed an effect of 50% or more. The list shows a part of the results.

The test has as its system Plasmodium falciparum. Nature of the test: Primary screen in NF54 nanoGlo assay, in single point, at 2uM, 72h; a lower Z score goes with more inhibition. Format: functional, Erythrocyte. Particulars: timepoint 72 hour.
A word on the % Inhibition: it is the relative decrease from the control value, in per cent. As to `C[C@H]1CC(C)(C)c2ccccc2N1C(=O)c1cc(S(=O)(=O)N(C)C)cn1C`, the “% Inhibition” value is recorded as -8% and the Z score was found to be 1.33.
For `CCC[C@H](C)NC(=O)c1cc(C)ccc1C`, the “% Inhibition” value is reported as -8% and the Z score is recorded as 1.45.
For `O=C(C[C@@H]1NC(=O)N(c2ccccc2)C1=O)NCCc1nc2ccccc2[nH]1` the same measures were -4% and 0.5.
For the molecule `Nc1ccn2ncc(C(=O)NC3CCC4C(C3)C4(F)F)c2c1` (stereo unspecified), the “% Inhibition” value came out at 14% and the Z score was -2.03.
As for `Cc1ccc(N2CC3C4CC5C(OC2C35)C4O)cc1` (stereo unspecified), the “% Inhibition” value is on record as -13% and the Z score is reported as 1.56.
Regarding `CC[C@H]1CCCCN1S(=O)(=O)c1cccc(-c2nc(-c3ccc(C)cc3)no2)c1`, the “% Inhibition” value is recorded as -10% and the Z score was 1.5.
For `c1ccc(COCc2cn(CCN3CCOCC3)nn2)cc1`, the “% Inhibition” value was -8% and the Z score is 1.24.
On the same counts, the results for `COCc1cc(N2C[C@H]3C[C@H](C2)[C@@H]2CCCC(=O)N2C3)ncn1` are -16% and 1.76.
`O=C(Nc1ccc(N2CCOCC2)cc1)[C@H]1CCN(c2cn[nH]c(=O)c2)C1`: the “% Inhibition” value was -14% and the Z score is on record as 1.91.
On the same counts, the results for `Oc1c(F)cc(F)cc1-c1ccc(F)c2cccnc12` are 1% and -0.18.
Consider `Cc1sc(NC(=O)[C@@H]2COc3ccccc3O2)nc1-c1ccccc1`, for which the “% Inhibition” value is on record as -5% and the Z score is 0.92.
On to `O=C(NCc1cccc(NC(=O)c2ccco2)c1)c1ccoc1`, for which the “% Inhibition” value was -20% and the Z score is listed as 3.8.
On the same counts, the results for `O=C(CNC(=O)c1cccs1)Nc1ccc2c(c1)OCCCO2` are -8% and 0.83.
Regarding `CCN(C[C@H]1CCOC1)C(=O)NCc1csc(C)n1`, the “% Inhibition” value was -12% and the Z score came to 2.22.
On to `O=C(Nc1nc2cc3c(cc2s1)OCCCO3)c1ccoc1Cl`, for which the “% Inhibition” value is recorded as 0% and the Z score was found to be 0.08.
Regarding `Cc1cc(C(F)(F)F)c2c(=O)n(CC(=O)N3CCCc4ccccc43)n(C)c2n1`, the “% Inhibition” value was 0% and the Z score is on record as 0.05.
Regarding `CCCCc1noc(C(C)NCC2CCOC2c2cnn(C)c2)n1` (stereo unspecified), the “% Inhibition” value worked out at 5% and the Z score is given as -0.55.
Regarding `CCC(=O)Cn1nnnc1Cc1ccc(Br)cc1`, the “% Inhibition” value was -9% and the Z score was determined as 1.37.
As for `NC(=O)[C@@H]1CN(C(=O)c2ccncc2C(F)(F)F)CCO1`, the “% Inhibition” value is reported as 3% and the Z score is given as -0.5.
On the same counts, the results for `CC1CN(C(=O)CCCn2ccnc2)CC(C)N1` (stereo unspecified) are -5% and 0.53.
For `CC1CN(C(=O)c2cc3ccc(C(C)(C)C)cc3[nH]2)CC2(CCOC2C)O1` (stereo unspecified) the same measures were -1% and 0.11.
With `Cc1nnc(CN(CCN2CCOC[C@@H]2C)C(C)(C)C)o1`, the “% Inhibition” value came out at 1% and the Z score is -0.06.
For `C[C@@H](c1ccccn1)N(Cc1ccccc1)C(=O)c1cccnc1`, the “% Inhibition” value is -13% and the Z score was determined as 2.03.
As to `CCc1onc(C)c1CNC(=O)Nc1ccn2cc(C)nc2c1`, the “% Inhibition” value is -9% and the Z score is 1.27.
Regarding `CCC(CC)C1CC(NC(=O)N[C@@H]2COC(=O)C2)CCO1` (stereo partly specified), the “% Inhibition” value worked out at 0% and the Z score was found to be 0.09.
On the same counts, the results for `CCCCn1c(C)c(C)c(S(=O)(=O)c2ccc(OC)cc2)c1NC(=O)c1ccco1` are -5% and 0.68.
With `CC(C)(C)OC(=O)N1CCC(COc2nc3ccccc3s2)CC1`, the “% Inhibition” value was -16% and the Z score is listed as 1.81.
On to `COc1ccc(OC)c(Cc2nnc(CCC(=O)N3C[C@H]4CCC[C@@H]3C4)o2)c1`, for which the “% Inhibition” value was 0% and the Z score is on record as -0.04.
Consider `Cc1cccc2c(N[C@H]3CCCN(CCO)C3=O)ncnc12`, for which the “% Inhibition” value is given as -11% and the Z score stood at 1.69.
Regarding `COc1ccc(C(=O)N2CCN=C2N2CCCC2)cc1`, the “% Inhibition” value is given as -7% and the Z score was 0.7.
As for `C[C@@]12CN(C(=O)COC3CCCC3)C[C@@H]1CN(c1nc3ccccc3o1)C2`, the “% Inhibition” value is reported as -14% and the Z score came out at 2.11.
Turning to `c1ccc(OCCNCc2ccncc2)nc1`, the “% Inhibition” value was 34% and the Z score was -3.85.
Regarding `C=C(C)Cn1c([C@H]2CCS(=O)(=O)C2)nnc1N1CCC(Nc2cccc(C)c2)CC1`, the “% Inhibition” value was -6% and the Z score came to 0.56.
Take `CC(CO)NC(c1ccc(Br)cc1)C1CCCO1` (stereo unspecified): the “% Inhibition” value is reported as -4% and the Z score turned out to be 0.37.
Take `CC(C)OCCCNc1nnc(C(C)(C)C)o1`: the “% Inhibition” value is recorded as -1% and the Z score was determined as 0.19.
For `Cn1c(=O)c(CN2CCOCC2)nc2cc(F)ccc21`, the “% Inhibition” value is -1% and the Z score was determined as 0.14.
For `Nc1nc(CCC(=O)N2C[C@@H]3CC[C@H]2CN(Cc2ccccn2)C3)cs1`, the “% Inhibition” value is on record as -2% and the Z score was 0.4.
As to `C[C@@H](C(=O)NC1(C(=O)O)CCCC1)c1cccs1`, the “% Inhibition” value worked out at 0% and the Z score is on record as -0.02.
On the same counts, the results for `COC(=O)CN(CC(C)C)c1ccnc(C(C)(C)C)n1` are 2% and -0.24.
On the same counts, the results for `O=C(CCc1ccc(S(=O)(=O)N2CCCC2)cc1)N1CCCC1` are -20% and 2.6.
With `CCOC(=O)[C@H](Cc1ccncc1)NC(=O)c1cc(C)sn1`, the “% Inhibition” value is -3% and the Z score is on record as 0.45.
Consider `Cc1ccnc(CNC2CCN(c3ccccc3C)CC2)c1`, for which the “% Inhibition” value was determined as 14% and the Z score was -1.83.
Take `CNCc1nc(-c2ccco2)nn1CC(C)(C)O`: the “% Inhibition” value was -6% and the Z score is listed as 0.95.
Turning to `CNc1cc(N2CCC(c3nnc(Cn4cncn4)n3C)CC2)nc(N)n1`, the “% Inhibition” value was -17% and the Z score was found to be 2.11.
For the molecule `CC1(C(=O)N2CCCN(Cc3ccccc3)CCOCC2)COC1`, the “% Inhibition” value is listed as -2% and the Z score is listed as 0.43.
On the same counts, the results for `CCOc1ccccc1CNC(=O)c1ccc(-c2ccsc2)nc1` are -15% and 2.02.
With `C#CCN(CCC)C(=O)c1ccncc1Cl`, the “% Inhibition” value is -11% and the Z score is reported as 1.37.
As to `CC(NC1c2ccccc2CCC1(C)C)c1nccn1C` (stereo unspecified), the “% Inhibition” value is reported as -8% and the Z score is 0.86.
On the same counts, the results for `Cn1c(C(C)(C)NC(=O)CN2CCC(CO)CC2)nc2ccccc21` are -5% and 1.08.
`CC[C@H]1CCc2sc(C(=O)N(C)Cc3cccnc3)cc2C1`: the “% Inhibition” value is recorded as -1% and the Z score amounted to 0.18.
For `O=C(CCN1CCC([C@H](O)c2cccs2)CC1)N1CCc2ccccc2C1`, the “% Inhibition” value came out at 1% and the Z score was -0.21.
Take `Cc1cc(C(=O)N2CCCN(c3ccc(F)c(F)c3)CC2)no1`: the “% Inhibition” value was 3% and the Z score is recorded as -0.49.
Take `CCn1cc(-c2nc(C)c(C(=O)Nc3cc(F)cc(F)c3)s2)c2cccnc21`: the “% Inhibition” value is given as -6% and the Z score is 1.
On the same counts, the results for `Cc1nc(Cn2cccnc2=O)n(-c2ccc(Cl)cc2)n1` are -12% and 1.65.
Regarding `CCc1n[nH]c(=O)c(C(=O)N2CCCCCCC2)c1CC`, the “% Inhibition” value came out at 25% and the Z score was -2.83.
As for `O=C(NCc1ccnc(-c2cccs2)c1)Nc1ccccc1C(F)(F)F`, the “% Inhibition” value amounted to 5% and the Z score is on record as -0.71.
For the molecule `Nc1nnc(CNC(=O)[C@H]2CC23CCCCC3)s1`, the “% Inhibition” value is listed as -2% and the Z score is 0.37.
For `COCCNC(=O)NC(=O)COc1c(C)cc(Br)cc1Cl` the same measures were -12% and 2.14.
On the same counts, the results for `Nc1ccc(N2CCN(c3nc(C4CCCCC4)ns3)CC2)cn1` are 1% and -0.11.
For the molecule `CCNC(=O)c1cccc(N2CCCN(Cc3cccc(C)c3)C2=O)c1`, the “% Inhibition” value is on record as -2% and the Z score is given as 0.36.
Turning to `Fc1cccc(C[n+]2csc3ccccc32)c1`, the “% Inhibition” value is on record as -31% and the Z score is 6.04.
Turning to `CC(C)[C@@H](NC(=O)c1ccc(Cl)s1)C(=O)O`, the “% Inhibition” value stood at 7% and the Z score is -0.79.
Take `N[C@H]1CCCN(C(=O)NCCc2cccc(Cl)c2)C1`: the “% Inhibition” value worked out at 1% and the Z score is -0.13.
Take `O=C(COc1ccccc1)Nc1ccc2ncnc(N3CCCCC3)c2c1`: the “% Inhibition” value is on record as 0% and the Z score is on record as 0.07.
`Cc1ncsc1CNC(=O)NCCOc1ccc(Cl)cn1`: the “% Inhibition” value is recorded as -12% and the Z score came to 2.23.
On the same counts, the results for `Cc1ccc(OCCOCCN(C)Cc2ccccc2)cc1C` are 5% and -0.73.
Consider `Cc1nc(CCCNS(=O)(=O)c2cncc(Cl)c2)n[nH]1`, for which the “% Inhibition” value is reported as -7% and the Z score turned out to be 0.73.
Regarding `CC1CCN(c2nc3c(c(N(C)C)n2)CNCC3)CC1`, the “% Inhibition” value is given as 13% and the Z score is -2.16.
In the case of `NC(=O)c1ccc(C(F)(F)F)nc1N1CCOC[C@@H](O)C1`, the “% Inhibition” value was determined as 6% and the Z score is on record as -0.85.
As for `CC(C)CC1(CNC(=O)C2(C#N)CCC2)CCC1`, the “% Inhibition” value came to 27% and the Z score is reported as -3.06.
For `O=C(Nc1ccccc1)OC1CCCC(NC(=O)c2ccc3c(c2)OCO3)C1` (stereo unspecified) the same measures were 0% and -0.07.
`COc1ccc(OCC2CCN(C(=O)c3cnc(O)cn3)CC2)cc1`: the “% Inhibition” value turned out to be 7% and the Z score is given as -0.97.
Turning to `COc1cc([C@H](C)NC2CC(c3cc(F)cc(F)c3)C2)ccn1` (stereo partly specified), the “% Inhibition” value is on record as -33% and the Z score is on record as 3.87.
Regarding `COCC(=O)N1CCN(C2=Nc3ccccc3Oc3c(OC)cccc32)C[C@@H]1C`, the “% Inhibition” value is 2% and the Z score was -0.23.
Turning to `COC(=O)c1ccc2c(c1)CC[C@H](NC(=O)OCC1CC1)C(=O)N2`, the “% Inhibition” value is recorded as -13% and the Z score came to 2.06.
Regarding `N#CC1(C(=O)N2CCc3[nH]cnc3C2)CCOCC1`, the “% Inhibition” value was 0% and the Z score is on record as -0.09.
Regarding `Cc1ncsc1CCN1Cc2ccccc2C2(CCC2)C1`, the “% Inhibition” value was found to be 4% and the Z score was -0.49.
For the molecule `O=C(c1ccco1)N1CCN(Cc2ccncc2)CC1`, the “% Inhibition” value worked out at 7% and the Z score is -0.91.
Turning to `COCCN1C[C@@H](CNc2nccnc2OC)CC1=O`, the “% Inhibition” value stood at 3% and the Z score is -0.63.
With `CN(CCN1CCCC1=O)C(=O)NCc1ccco1`, the “% Inhibition” value was -21% and the Z score is given as 2.78.
In the case of `CCOc1cccc(Cc2noc([C@]3(O)CCCN(C(C)=O)C3)n2)n1`, the “% Inhibition” value was determined as 9% and the Z score is given as -1.62.
For the molecule `CN(CC1CCCCO1)C1CCCC1S(C)(=O)=O` (stereo unspecified), the “% Inhibition” value came out at 1% and the Z score is given as -0.08.
For `CC(C)(C)c1nnc(CNC(=O)[C@@H]2CCc3cccnc32)s1`, the “% Inhibition” value is on record as -3% and the Z score worked out at 0.41.
Turning to `COc1ccc(CN2C(=O)[C@@H]3Cc4c([nH]c5ccccc45)C(C)(C)N3C2=O)cc1`, the “% Inhibition” value is -2% and the Z score was 0.27.
For the molecule `Cc1cc(O[C@H]2CCCN(C(=O)CN3CCN(c4ccccc4F)C3=O)C2)nc(C)n1`, the “% Inhibition” value turned out to be 7% and the Z score is reported as -0.91.
Regarding `COc1ccc(-c2nc(N3CCN(CCO)CC3)[nH]c(=O)c2C#N)cc1`, the “% Inhibition” value was -17% and the Z score came to 1.54.
As for `CCCCCS(=O)(=O)NCc1ccc(C#N)cc1F`, the “% Inhibition” value amounted to 30% and the Z score is -3.44.
Consider `CCn1cc(C(=O)N2CCC[C@H](c3[nH]ncc3-c3ccc(C)cc3)C2)c(C)n1`, for which the “% Inhibition” value worked out at 1% and the Z score is on record as -0.17.
